These results are taken from PMC12443466, “Allosteric modulation of protein kinase A in individuals affected by NLPD‐PKA, a neurodegenerative disease in which the PRKAR1B L50R variant is expressed” (The Febs Journal, 2025).

This data set deals with the molecule itself. Nature of the data set: SEC; HiLoad 16/600 Superdex 200 pg; 50 mM Tris, 200 mM NaCl, pH 7.5; refolded D/D domain, peak at ~90 mL collected and re-injected.

B1: Dimerization/Docking (D/D) domain of wildtype PKA-RIβ (domain or fragment)
chain: not shown
notes: D/D domain of PKA regulatory subunit RIβ (PRKAR1B); PDB 4F9K is the cited structure of the RIβ D/D domain; also called native RIβ D/D domain; wildtype D/D domain
B1: the “stoichiometry N” value was found to be 2.
